# Reference: PMC5892938
# This is one part of the list. Construct or isoform of the protein are uncertain.
# Molecular target: GST-SBP-ILF3 (Homo sapiens) (UniProt Q12906)
# Assay: targeted RNA Bind-n-Seq
# Settings: RBNS binding buffer: 25 mM Tris pH 7.5, 150 mM KCl, 3 mM MgCl2, 0.1% Tween, 0.5 mg/mL BSA, 1 mM DTT; 27 nM protein, 750 pM RNA pool; temperature not stated; high values mean tight binding; sequences stand for … in GGGUAAAAGCGAGGUGAA…CGGGACAAGUAUUAUGGG
row,Sequence,binding signal (log2 fold change)
1,UUUUUUUUUUGAGACGGAAUCCGUCUCCGG [tttttgagapaired],0.232
2,GUGUGUGGUGUUGGUCUCUAACACCGCGCG [gtspaired],-0.83
3,GUGUGUUGUGUUGGCACCUAACACAGCACG [gtspaired],-0.729
4,UUUUUUUUUUGAGAUGGGAGCUAUCUCCAG [tttttgagapaired],0.412
5,UUUUUUUUUUGAGAUCGUAACGAUCUUCUG [tttttgagapaired],0.141
6,UUUUUUUUUUGAGAGCGAGGCGCUCUCCUG [tttttgagapaired],0.463
7,GUGUGUGGUGUUGGUUCCUAACACCAUACG [gtspaired],-0.818
8,UUUUUUUUUUGAGAGCGGGCCGCUCUCCGG [tttttgagapaired],0.726
9,GUGUGUGGUGUUGGCGUCUAACACCGCGCA [gtspaired],-0.739
10,UUUUUUUUUUGAGACGGUUGCCGUCUCCUA [tttttgagapaired],0.387
11,GGUGUGUGUGUUGGUACCUAACACACGCGC [gtspaired],-0.549
12,UUUUUUUUUUGAGAACGAGUCGUUCUUCUA [tttttgagapaired],-0.0101
13,GGUUGUGGUGUUGGCAUCUAACACCGCGAC [gtspaired],-1.04
14,UUUUUUUUUUGAGAACGUGUCGUUCUCCAG [tttttgagapaired],0.412
15,UUUUUUUUUUGAGACCGCAACGGUCUCCUG [tttttgagapaired],0.275
16,GGUUGUGGUGUUGGAACCUAACACCGCAGC [gtspaired],-0.344
17,UUUUUUUUUUGAGAGCGAGUCGUUCUUCUA [tttttgagapaired],0.117
18,GUGUGUGGUGUUGGUACCUAACACCAUACA [gtspaired],-0.434
19,UUUUUUUUUUGAGAGUGUAACAUUCUCCAG [tttttgagapaired],-0.0543
20,GUGUGGUGUGUUGGAACCUAACACAUCGCA [gtspaired],-0.515
21,UUUUUUUUUUGAGACCGCGGCGGUCUCCUG [tttttgagapaired],0.867
22,GUGUGUUGUGUUGGAGUCUAACACAGCACA [gtspaired],-0.579
23,UUUUUUUUUUGAGAUGGGCACCAUCUCCUG [tttttgagapaired],0.601
24,GUGUGGUGUGUUGGACUCUAACACAUCACG [gtspaired],-0.424
25,UUUUUUUUUUGAGACUGUUGCAGUUUCCAG [tttttgagapaired],0.507
26,GUGGUGUGUGUUGGCUCCUAACACACACUA [gtspaired],-0.425

row,Sequence,binding signal (log2 fold change)
1,GGUGGUGGUGUUGGCUCCUAACACCGCUAC [gtspaired],-0.4
2,UUUUUUUUUUGAGAUGGAGACCAUUUCCAG [tttttgagapaired],0.478
3,GUGGUGUGUGUUGGUCUCUAACACACAUCG [gtspaired],-0.838
4,UUUUUUUUUUGAGAGCGAUACGUUCUCCUA [tttttgagapaired],0.297
5,UUUUUUUUUUGAGAUGGGAACCAUUUCCGG [tttttgagapaired],0.297
6,UUUUUUUUUUGAGAGGGGGGCCCUCUCCGG [tttttgagapaired],0.82
7,UUUUUUUUUUGAGACGGCGACCGUCUCCAG [tttttgagapaired],0.386
8,UUUUUUUUUUGAGAGGGGCGCCCUCUCCAG [tttttgagapaired],0.774
9,UUUUUUUUUUGAGAACGAAACGUUCUUCUA [tttttgagapaired],-0.308
10,UUUUUUUUUUGAGACCGAUUCGGUUUCCUA [tttttgagapaired],0.17
11,UUUUUUUUUUGAGAGGGGGACCCUCUUCUA [tttttgagapaired],0.0316
12,GUGUGGUGUGUUGGCGCCUAACACACUACA [gtspaired],-0.0887
13,UUUUUUUUUUGAGACCGAGGCGGUCUCCAG [tttttgagapaired],0.356
14,UUUUUUUUUUGAGACGGUUUCUGUCUUCUA [tttttgagapaired],0.241
15,GUUGUGUGUGUUGGUGCCUAACACACGCAG [gtspaired],-0.6
16,UUUUUUUUUUGAGAUGGUAGCCAUCUCCUG [tttttgagapaired],0.533
17,UUUUUUUUUUGAGAUGGAACCCAUCUCCUA [tttttgagapaired],0.241
18,UUUUUUUUUUGAGAGGGGGUCCUUCUCCGG [tttttgagapaired],0.868
19,UUUUUUUUUUGAGAGUGAGGCACUCUUCUA [tttttgagapaired],0.0598
20,GUGGUGUGUGUUGGUACCUAACACACAUCA [gtspaired],-0.135
21,UUUUUUUUUUGAGAACGAUACGUUCUCCGG [tttttgagapaired],0.0447
22,GUGGUUGGUGUUGGAGUCUAACACCGACCG [gtspaired],-0.467
23,GUGGUGUGUGUUGGCUUCUAACACACAUCA [gtspaired],-0.366
24,UUUUUUUUUUGAGAGCGUCACGCUCUCCAG [tttttgagapaired],0.787
25,UUUUUUUUUUGAGACUGUUUCAGUCUCCUG [tttttgagapaired],0.192
26,UUUUUUUUUUGAGAGGGCGUCCCUCUCCGG [tttttgagapaired],0.871

row,Sequence,binding signal (log2 fold change)
1,GUGUGGUGUGUUGGUCUCUAACACAUCGCG [gtspaired],-0.786
2,UUUUUUUUUUGAGAUGGAGUCCAUCUUCUA [tttttgagapaired],0.208
3,GUGUGGUGUGUUGGAAUCUAACACAUCACA [gtspaired],-0.995
4,GGUUGGUGUGUUGGCUCCUAACACAUCAGC [gtspaired],-0.927
5,GUGUGGUGUGUUGGCCCCUAACACACUACG [gtspaired],-0.144
6,UUUUUUUUUUGAGAUCGAUACGAUCUUCUA [tttttgagapaired],-0.0587
7,GGUGUUGGUGUUGGCAUCUAACACCGACGC [gtspaired],-0.422
8,GGUUGGUGUGUUGGCCCCUAACACAUCGAC [gtspaired],0.0785
9,GUGGUUGGUGUUGGCACCUAACACCGACUA [gtspaired],-0.558
10,UUUUUUUUUUGAGACUGGUACAGUUUCCAG [tttttgagapaired],0.701
11,UUUUUUUUUUGAGACCGGGGCGGUCUCCAG [tttttgagapaired],0.344
12,GUUGUGUGUGUUGGACUCUAACACACGCAA [gtspaired],-0.557
13,UUUUUUUUUUGAGAGCGAACCGUUCUCCAG [tttttgagapaired],0.456
14,UUUUUUUUUUGAGAUGGAAACCAUCUCCUG [tttttgagapaired],0.224
15,UUUUUUUUUUGAGACGGAGGCUGUCUCCUG [tttttgagapaired],1.11
16,UUUUUUUUUUGAGAGGGCUACCCUCUCCAG [tttttgagapaired],0.453
17,UUUUUUUUUUGAGAUGGUAACUAUCUCCAG [tttttgagapaired],0.343
18,GUUGUGUGUGUUGGAGUCUAACACACACAG [gtspaired],-0.559
19,UUUUUUUUUUGAGAGCGGGCCGCUCUCCUA [tttttgagapaired],0.596
20,UUUUUUUUUUGAGAUGGCAUCCAUCUCCUG [tttttgagapaired],0.341
21,UUUUUUUUUUGAGAUGGUAUCCAUCUCCUG [tttttgagapaired],0.233
22,UUUUUUUUUUGAGAGCGUAGCGCUCUCCAG [tttttgagapaired],0.171
23,UUUUUUUUUUGAGAUGGUAACCAUCUCCUG [tttttgagapaired],0.388
24,UUUUUUUUUUGAGAGCGUGUCGUUCUCCAG [tttttgagapaired],0.549
25,UUUUUUUUUUGAGAGCGAAUCGUUCUUCUA [tttttgagapaired],-0.119
26,UUUUUUUUUUGAGACGGGGGCCGUCUCCAG [tttttgagapaired],0.776

row,Sequence,binding signal (log2 fold change)
1,GUGUGGUGUGUUGGUCCCUAACACACCGCA [gtspaired],-0.747
2,UUUUUUUUUUGAGACGGUAGCCGUCUUCUA [tttttgagapaired],0.603
3,UUUUUUUUUUGAGACGGUAUCCGUCUUCUG [tttttgagapaired],0.546
4,GUGUGUUGUGUUGGCCCCUAACACAACACG [gtspaired],-0.107
5,UUUUUUUUUUGAGAGCGUACCGCUCUCCAG [tttttgagapaired],0.405
6,UUUUUUUUUUGAGAUGGGGUCCAUCUCCAG [tttttgagapaired],0.433
7,UUUUUUUUUUGAGAACGAAUCGUUCUCCGG [tttttgagapaired],-0.156
8,GUGUGGUGUGUUGGCGUCUAACACAUCACA [gtspaired],-0.609
9,GUGGUGUGUGUUGGUCUCUAACACACAUCA [gtspaired],-0.561
10,GGUUGGUGUGUUGGUCCCUAACACAUCAAC [gtspaired],-0.613
11,UUUUUUUUUUGAGAUCGAGACGGUCUCCUA [tttttgagapaired],0.309
12,UUUUUUUUUUGAGAGGGGACCCCUUUCCGG [tttttgagapaired],0.365
13,UUUUUUUUUUGAGACUGAGUCAGUCUUCUG [tttttgagapaired],0.284
14,UUUUUUUUUUGAGAGCGUAGCGCUCUUCUG [tttttgagapaired],0.265
15,UUUUUUUUUUGAGAGGGCGGCCCUCUCCUG [tttttgagapaired],1.29
16,UUUUUUUUUUGAGAGCGAAGCGCUCUCCAG [tttttgagapaired],0.543
17,GUGGUUGGUGUUGGUUCCUAACACCAGCCG [gtspaired],-0.799
18,UUUUUUUUUUGAGAUGGGUGCUAUCUCCAG [tttttgagapaired],0.694
19,UUUUUUUUUUGAGACGGCUGCCGUUUCCUA [tttttgagapaired],0.619
20,GUGGUGUGUGUUGGCACCUAACACACGCCA [gtspaired],-0.532
21,GUGUGUUGUGUUGGUCUCUAACACAACGCG [gtspaired],-0.673
22,UUCUCUCUUCCUCCUGAGGAGGAGGGGAGA [ctspaired],-0.00227
23,UUUUUUUUUUGAGACGGAAACCGUCUCCUG [tttttgagapaired],0.336
24,UUUUUUUUUUGAGAGCGAUGCGUUCUUCUA [tttttgagapaired],0.434
25,UUUUUUUUUUGAGAGGGGAACCCUCUUCUA [tttttgagapaired],-0.226
